Measured values reported in patent KR20220059888A (dated 2022).

T1: 개 Tie2 단백질 (개 (dog), UniProt A0A8I3S0B4 27-1128)
T1 construct: whole, on cells; also called 다른 종 유래의 Tie2 단백질
T1 sequence: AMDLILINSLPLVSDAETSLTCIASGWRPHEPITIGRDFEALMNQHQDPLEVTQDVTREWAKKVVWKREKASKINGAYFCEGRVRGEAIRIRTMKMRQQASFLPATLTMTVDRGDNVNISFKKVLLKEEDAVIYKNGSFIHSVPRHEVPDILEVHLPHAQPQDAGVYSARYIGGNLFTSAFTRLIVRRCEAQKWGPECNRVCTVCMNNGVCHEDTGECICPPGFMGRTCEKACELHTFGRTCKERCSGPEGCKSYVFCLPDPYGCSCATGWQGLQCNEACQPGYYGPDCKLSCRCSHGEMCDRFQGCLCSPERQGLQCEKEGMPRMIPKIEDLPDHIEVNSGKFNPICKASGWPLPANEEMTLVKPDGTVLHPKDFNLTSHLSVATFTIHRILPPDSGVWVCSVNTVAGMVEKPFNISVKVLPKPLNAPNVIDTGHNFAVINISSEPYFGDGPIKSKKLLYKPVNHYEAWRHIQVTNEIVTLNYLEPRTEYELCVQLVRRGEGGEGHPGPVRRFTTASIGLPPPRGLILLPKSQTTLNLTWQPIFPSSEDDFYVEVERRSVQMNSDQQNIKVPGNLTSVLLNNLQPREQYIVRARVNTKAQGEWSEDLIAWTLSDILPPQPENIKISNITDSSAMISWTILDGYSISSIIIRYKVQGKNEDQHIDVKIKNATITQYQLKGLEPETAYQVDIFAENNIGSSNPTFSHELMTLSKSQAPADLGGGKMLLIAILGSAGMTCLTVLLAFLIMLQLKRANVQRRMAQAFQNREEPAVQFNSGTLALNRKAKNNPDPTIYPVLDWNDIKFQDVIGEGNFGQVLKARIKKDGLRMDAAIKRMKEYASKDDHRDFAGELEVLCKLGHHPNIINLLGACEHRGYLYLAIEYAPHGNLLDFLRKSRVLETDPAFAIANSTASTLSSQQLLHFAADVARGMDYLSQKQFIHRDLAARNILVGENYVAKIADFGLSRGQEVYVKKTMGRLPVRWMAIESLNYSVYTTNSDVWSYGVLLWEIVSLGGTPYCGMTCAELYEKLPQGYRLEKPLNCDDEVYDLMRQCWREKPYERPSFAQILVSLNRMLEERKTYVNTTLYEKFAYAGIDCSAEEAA

T2: 랫 Tie2 단백질 (랫 (rat), UniProt A0ABK0L6J5 19-1116)
T2 construct: whole, on cells; also called 다른 종 유래의 Tie2 단백질
T2 sequence: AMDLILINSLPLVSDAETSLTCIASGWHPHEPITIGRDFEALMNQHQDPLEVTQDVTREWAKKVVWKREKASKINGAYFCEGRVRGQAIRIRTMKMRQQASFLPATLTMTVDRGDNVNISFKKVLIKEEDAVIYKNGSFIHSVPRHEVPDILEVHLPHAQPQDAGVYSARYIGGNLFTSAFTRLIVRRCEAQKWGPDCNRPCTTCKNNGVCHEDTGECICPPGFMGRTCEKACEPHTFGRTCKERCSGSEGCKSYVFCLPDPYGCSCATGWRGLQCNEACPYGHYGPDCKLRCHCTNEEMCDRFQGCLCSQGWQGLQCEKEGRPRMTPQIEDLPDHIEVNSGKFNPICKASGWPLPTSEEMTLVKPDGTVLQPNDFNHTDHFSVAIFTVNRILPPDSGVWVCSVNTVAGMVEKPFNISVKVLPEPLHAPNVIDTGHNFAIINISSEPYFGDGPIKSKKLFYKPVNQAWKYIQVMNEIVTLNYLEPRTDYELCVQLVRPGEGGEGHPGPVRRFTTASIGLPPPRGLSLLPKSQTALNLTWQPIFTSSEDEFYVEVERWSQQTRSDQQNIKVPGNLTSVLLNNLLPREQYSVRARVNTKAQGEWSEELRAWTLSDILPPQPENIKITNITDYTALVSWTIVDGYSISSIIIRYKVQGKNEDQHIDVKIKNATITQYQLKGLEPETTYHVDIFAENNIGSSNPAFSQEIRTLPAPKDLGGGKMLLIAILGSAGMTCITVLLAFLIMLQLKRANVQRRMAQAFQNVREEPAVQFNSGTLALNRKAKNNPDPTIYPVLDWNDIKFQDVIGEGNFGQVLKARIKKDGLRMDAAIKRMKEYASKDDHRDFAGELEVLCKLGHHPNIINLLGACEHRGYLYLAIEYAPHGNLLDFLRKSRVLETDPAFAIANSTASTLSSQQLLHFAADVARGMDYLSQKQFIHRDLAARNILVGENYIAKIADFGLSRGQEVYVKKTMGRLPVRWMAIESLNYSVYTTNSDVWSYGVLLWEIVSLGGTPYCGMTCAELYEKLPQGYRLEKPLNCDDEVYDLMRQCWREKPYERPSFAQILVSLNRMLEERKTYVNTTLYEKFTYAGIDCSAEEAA

T3: 마우스 Tie2 단백질 (마우스 (mouse), UniProt Q02858 23-1122)
T3 construct: whole, on cells; also called 다른 종 유래의 Tie2 단백질
T3 sequence (looked up): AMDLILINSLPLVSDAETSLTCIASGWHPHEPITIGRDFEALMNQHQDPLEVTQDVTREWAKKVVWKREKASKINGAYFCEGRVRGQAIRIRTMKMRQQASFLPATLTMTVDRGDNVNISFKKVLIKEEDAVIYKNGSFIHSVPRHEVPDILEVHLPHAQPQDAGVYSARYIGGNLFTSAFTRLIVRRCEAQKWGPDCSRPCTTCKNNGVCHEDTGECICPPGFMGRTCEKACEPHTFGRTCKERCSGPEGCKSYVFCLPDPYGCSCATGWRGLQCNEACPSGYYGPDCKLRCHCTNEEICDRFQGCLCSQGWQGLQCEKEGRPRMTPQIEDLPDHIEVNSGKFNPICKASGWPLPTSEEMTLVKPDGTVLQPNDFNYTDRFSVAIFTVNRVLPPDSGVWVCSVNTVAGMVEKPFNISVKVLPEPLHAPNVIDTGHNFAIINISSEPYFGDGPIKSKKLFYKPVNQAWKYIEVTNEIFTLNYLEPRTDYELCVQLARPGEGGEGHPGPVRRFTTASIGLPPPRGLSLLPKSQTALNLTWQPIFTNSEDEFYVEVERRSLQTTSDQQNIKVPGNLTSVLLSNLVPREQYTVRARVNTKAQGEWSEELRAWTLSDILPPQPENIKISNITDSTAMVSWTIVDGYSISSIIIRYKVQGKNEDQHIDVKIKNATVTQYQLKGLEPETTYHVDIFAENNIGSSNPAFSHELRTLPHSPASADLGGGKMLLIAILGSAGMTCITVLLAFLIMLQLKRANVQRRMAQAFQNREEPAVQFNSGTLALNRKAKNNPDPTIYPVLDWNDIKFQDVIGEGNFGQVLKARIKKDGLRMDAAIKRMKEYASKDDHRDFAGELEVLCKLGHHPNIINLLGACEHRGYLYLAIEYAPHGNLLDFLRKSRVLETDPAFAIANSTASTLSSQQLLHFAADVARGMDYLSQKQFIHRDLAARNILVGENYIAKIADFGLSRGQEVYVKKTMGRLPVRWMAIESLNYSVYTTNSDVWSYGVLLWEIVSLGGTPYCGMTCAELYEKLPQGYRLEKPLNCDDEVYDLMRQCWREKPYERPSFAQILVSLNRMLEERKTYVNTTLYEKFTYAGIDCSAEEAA


Assays:
[1] = molecular target: T1, 개 Tie2 단백질; experiment: flow cytometry; HEK293T cells transfected with dog Tie2
[2] = molecular target: T2, 랫 Tie2 단백질; experiment: flow cytometry; HEK293T cells transfected with rat Tie2
[3] = molecular target: T3, 마우스 Tie2 단백질; experiment: flow cytometry; HEK293T cells transfected with mouse Tie2
[4] = molecular target: T4, 인간 Tie2-Fc 재조합 단백질 (인간 (human), UniProt Q02763 23-748, limits assumed); experiment: BLI (Octet K2); human Tie2-Fc immobilised on AR2G tip; antibody 30-1.63 nM; global fit
T4 construct: Human Tie2-Fc recombinant protein, coated in ELISA and immobilised in BLI; also called 인간 Tie2-Fc 단백질; 항원; not shown: Fc part

Row | Kd [4] [nM] | koff [4] [s⁻¹] | kon [4] [M⁻¹ s⁻¹] | Binder | binding result [1] | binding result [2] | binding result [3]
1 | 0.529 | 4.6e-05 | 87000 | Ang1mab4 (antibody, human IgG4 S228P, kappa, also called 제1 기본 항체; 기본 항체(Ang1mab4)) heavy: QVQLVQSGGGVVQPGRSLRLSCAASGLTFSNYAMHWVRQAPGKGLEWVAVISYDGENKYYADSVKGRFTISRDNSKNMLQLQMNRLRSEDTAVYYCATPKGGALEIWGQGTVITVSSASTKGPSVFPLAPCSRSTSESTAALGCLVKDYFPEPVTVSWNSGALTSGVHTFPAVLQSSGLYSLSSVVTVPSSSLGTKTYTCNVDHKPSNTKVDKRV[sequence of human IgG4 Fc with S228P (EU numbers) omitted] light: DIQMTQSPDSLAVSLGERATINCKSSQSVLYSSNNKNYLAWYQQKPGQPPNLLMYWASTRESGVPDRFSGSGSGTDFTLTISSLQAEDVAVYYCQQYYSAPITFGQGTRLEIKRTVAAPSVFIFPPSDEQLKSGTASVVCLLNNFYPREAKVQWKVDNALQSGNSQESVTEQDSKDSTYSLSSTLTLSKADYEKHKVYACEVTHQGLSSPVTKSFNRGEC | no binding (tested: 5-g/ml (so in the source)) | no binding (tested: 5-g/ml (so in the source)) | no binding (tested: 5-g/ml (so in the source))
2 | 0.934 | 8.31e-05 | 88900 | Ang1mab4(H1S05A) (antibody, human IgG4 S228P, kappa, also called 변이 항체) heavy: QVQLVQSGGGVVQPGRSLRLSCAASGLTFANYAMHWVRQAPGKGLEWVAVISYDGENKYYADSVKGRFTISRDNSKNMLQLQMNRLRSEDTAVYYCATPKGGALEIWGQGTVITVSSASTKGPSVFPLAPCSRSTSESTAALGCLVKDYFPEPVTVSWNSGALTSGVHTFPAVLQSSGLYSLSSVVTVPSSSLGTKTYTCNVDHKPSNTKVDKRV[sequence of human IgG4 Fc with S228P (EU numbers) omitted] light: DIQMTQSPDSLAVSLGERATINCKSSQSVLYSSNNKNYLAWYQQKPGQPPNLLMYWASTRESGVPDRFSGSGSGTDFTLTISSLQAEDVAVYYCQQYYSAPITFGQGTRLEIKRTVAAPSVFIFPPSDEQLKSGTASVVCLLNNFYPREAKVQWKVDNALQSGNSQESVTEQDSKDSTYSLSSTLTLSKADYEKHKVYACEVTHQGLSSPVTKSFNRGEC | no binding (tested: 5-g/ml (so in the source)) | no binding (tested: 5-g/ml (so in the source)) | no binding (tested: 5-g/ml (so in the source))
3 | 0.471 | 4.56e-05 | 97100 | Ang1mab4(H1L02A) (antibody, human IgG4 S228P, kappa, also called 변이 항체) heavy: QVQLVQSGGGVVQPGRSLRLSCAASGATFSNYAMHWVRQAPGKGLEWVAVISYDGENKYYADSVKGRFTISRDNSKNMLQLQMNRLRSEDTAVYYCATPKGGALEIWGQGTVITVSSASTKGPSVFPLAPCSRSTSESTAALGCLVKDYFPEPVTVSWNSGALTSGVHTFPAVLQSSGLYSLSSVVTVPSSSLGTKTYTCNVDHKPSNTKVDKRV[sequence of human IgG4 Fc with S228P (EU numbers) omitted] light: DIQMTQSPDSLAVSLGERATINCKSSQSVLYSSNNKNYLAWYQQKPGQPPNLLMYWASTRESGVPDRFSGSGSGTDFTLTISSLQAEDVAVYYCQQYYSAPITFGQGTRLEIKRTVAAPSVFIFPPSDEQLKSGTASVVCLLNNFYPREAKVQWKVDNALQSGNSQESVTEQDSKDSTYSLSSTLTLSKADYEKHKVYACEVTHQGLSSPVTKSFNRGEC | no binding (tested: 5-g/ml (so in the source)) | no binding (tested: 5-g/ml (so in the source)) | no binding (tested: 5-g/ml (so in the source))
4 | 0.761 | 7.12e-05 | 93800 | Ang1mab4(H1G01A) (antibody, human IgG4 S228P, kappa, frameworks and constant regions as in Ang1mab4; also called 변이 항체) heavy: QVQLVQSGGGVVQPGRSLRLSCAASALTFSNYAMHWVRQAPGKGLEWVAVISYDGENKYYADSVKGRFTISRDNSKNMLQLQMNRLRSEDTAVYYCATPKGGALEIWGQGTVITVSSASTKGPSVFPLAPCSRSTSESTAALGCLVKDYFPEPVTVSWNSGALTSGVHTFPAVLQSSGLYSLSSVVTVPSSSLGTKTYTCNVDHKPSNTKVDKRV[sequence of human IgG4 Fc with S228P (EU numbers) omitted] light: DIQMTQSPDSLAVSLGERATINCKSSQSVLYSSNNKNYLAWYQQKPGQPPNLLMYWASTRESGVPDRFSGSGSGTDFTLTISSLQAEDVAVYYCQQYYSAPITFGQGTRLEIKRTVAAPSVFIFPPSDEQLKSGTASVVCLLNNFYPREAKVQWKVDNALQSGNSQESVTEQDSKDSTYSLSSTLTLSKADYEKHKVYACEVTHQGLSSPVTKSFNRGEC | no binding (tested: 5-g/ml (so in the source)) | no binding (tested: 5-g/ml (so in the source)) | no binding (tested: 5-g/ml (so in the source))
